Assay results taken from PubChem BioAssay (Tox21).
Several values for one entry are separate records, joined by “and”; a condition that tells them apart may be missing. Identical values can stand only once. Inconclusive means that the source gave no clear call. Such entries were picked first, then a sample of the others. A potency beside an inconclusive call is a rough fit, not a confirmed value. Activity calls are given as the source filed them. Unless noted, calls come from the whole dose curve; as a rule, active = well fitted curve in the direction sought with a large enough effect in the repeat runs; inconclusive = weak or mixed curves; inactive = no such curve, though single readings can be large; an effect the other way counts as inactive or inconclusive.

Key:
[1] = qHTS assay to identify small molecule agonists of the androgen receptor (AR) signaling pathway in the presence of an antagonist - cell viability counter screen (AID 1259379); note: nearly all actives have a fitted effect of over 25% in size
Outline: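 Cells: MDA-kb2 (MMTV-luc, AR and GR elements), 3,000/well, 5 hr settle. Added: nilutamide 3.0uM final, then compounds (15 conc.). Incubation: 16 hr, 37C, no CO2. Read-out: CellTiter-Fluor, 1 hr, fluorescence.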

[2] = qHTS assay to identify small molecule agonists of the estrogen receptor beta (ER-beta) signaling pathway - cell viability counter screen (AID 1259380); note: nearly all actives have a fitted effect of over 30% in size
Outline: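 HEK293T ER-beta-UAS-bla; 2% CS-FBS; 6 hr pre-plate, 16 hr cpd at 37C/5% CO2; LiveBLAzer read first, then CellTiter-Glo 30 min RT, luminescence.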

[3] = biological target: Progesterone receptor (Homo sapiens) (UniProt P06401); experiment: qHTS assay to identify small molecule agonists of the progesterone receptor (PR) signaling pathway (AID 1346784; calls by dose curve; note: nearly all actives have a fitted effect of over 30% in size; for activation: % is set by controls: 0 for no effect and ±100 for the full control effect); conditions: PR-UAS-bla HEK293T, beta-lactamase FRET ratio, 16 h; activation: at 92.4 µM (top of the series) unless noted
UniProt P06401, sequence (P06401 whole entry, looked up): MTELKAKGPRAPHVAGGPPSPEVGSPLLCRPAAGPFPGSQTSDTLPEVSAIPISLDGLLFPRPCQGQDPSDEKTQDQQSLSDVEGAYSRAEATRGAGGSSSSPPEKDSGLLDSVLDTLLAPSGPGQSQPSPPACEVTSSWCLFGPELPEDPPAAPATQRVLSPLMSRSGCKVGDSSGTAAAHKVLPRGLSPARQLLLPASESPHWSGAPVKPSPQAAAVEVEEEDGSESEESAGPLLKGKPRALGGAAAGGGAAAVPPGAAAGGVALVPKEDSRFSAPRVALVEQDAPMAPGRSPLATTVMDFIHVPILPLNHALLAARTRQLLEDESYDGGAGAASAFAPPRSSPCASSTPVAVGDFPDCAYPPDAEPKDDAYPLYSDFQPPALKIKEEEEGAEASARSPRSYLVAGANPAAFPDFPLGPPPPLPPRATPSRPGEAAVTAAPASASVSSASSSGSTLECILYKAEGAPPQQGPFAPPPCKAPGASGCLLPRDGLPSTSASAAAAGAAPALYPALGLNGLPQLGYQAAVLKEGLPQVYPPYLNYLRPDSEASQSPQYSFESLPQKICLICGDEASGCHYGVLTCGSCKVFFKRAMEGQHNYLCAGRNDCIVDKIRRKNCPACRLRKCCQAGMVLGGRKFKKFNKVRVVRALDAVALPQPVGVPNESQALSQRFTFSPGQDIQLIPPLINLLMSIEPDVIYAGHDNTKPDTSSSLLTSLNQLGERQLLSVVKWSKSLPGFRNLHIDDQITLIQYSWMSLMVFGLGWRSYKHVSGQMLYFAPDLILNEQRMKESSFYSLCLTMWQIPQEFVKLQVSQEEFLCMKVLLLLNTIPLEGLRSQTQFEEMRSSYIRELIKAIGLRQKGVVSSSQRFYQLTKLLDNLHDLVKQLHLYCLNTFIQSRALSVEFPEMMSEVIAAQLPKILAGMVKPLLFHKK
Outline: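 Agonist qHTS: compounds pinned onto 3,000 PR-UAS-bla HEK 293T cells per well in charcoal-stripped serum medium, 16hr at 37C, then beta-lactamase activity measured by LiveBLAzer FRET fluorescence after 2 hours at room temperature.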

[4] = biological target: Progesterone receptor (Homo sapiens) (UniProt P06401); experiment: qHTS assay to identify small molecule antagonists of the progesterone receptor (PR) signaling pathway (AID 1346795; active = well fitted inhibition curve with a large enough effect in the signal ratio in the repeat runs, not every such curve was filed as active; inconclusive = weak or mixed curves; the % refers to the signal ratio; for activity change, negative = inhibition: % is set by controls: 0 for no effect and ±100 for the full control effect); conditions: PR-UAS-bla HEK293T, beta-lactamase FRET ratio, 16 h; activity change, negative = inhibition: at 92.4 µM (top of the series) unless noted
Outline: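 Antagonist mode with agonist R5020 at 1 nM final and 16 hr incubation at 37C. Reporter was beta-lactamase driven by UAS in HEK293T (PR-UAS-bla), 2% charcoal-stripped serum; signal from LiveBLAzer FRET substrate, 2 hr at room temperature.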

[5] = qHTS assay to identify small molecule antagonists of the progesterone receptor (PR) signaling pathway - cell viability counter screen (AID 1346798); note: nearly all actives have a fitted effect of over 50% in size
Outline: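 Cytotoxicity read as CellTiter-Glo luminescence (30 min, room temperature) in the same wells as the beta-lactamase readout. HEK293T PR-UAS-bla cells in charcoal-stripped 2% FBS received compound and R5020, then 16 h at 37C, 5% CO2.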

[6] = qHTS assay to identify small molecule agonists of the progesterone receptor (PR) signaling pathway - cell viability counter screen (AID 1346799; calls by dose curve; note: nearly all actives have a fitted effect of over 45% in size)
Outline: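 Cytotoxicity measured by CellTiter-Glo luminescence (30 min, RT) in the same wells as the PR beta-lactamase agonist read. Those HEK293T cells had 16 h compound treatment at 37 C in 2% charcoal-stripped FBS medium.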

[7] = qHTS assay to identify small molecule antagonists of the TGF-beta/Smad signaling pathway - cell viability counter screen (AID 1346824); note: nearly all actives have a fitted effect of over 50% in size
Outline: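 SBE-bla HEK 293T cells, incubated overnight, then compound plus 0.25 ng/mL TGF-beta1 (stock added) for 5 hr at 37 C. Viability was read in the same wells by CellTiter-Glo luminescence after 30 min at room temperature.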

[8] = biological target: Thyrotropin receptor (Homo sapiens) (UniProt P16473); experiment: qHTS assay to identify small molecule antagonists of the thyroid stimulating hormone receptor (TSHR) signaling pathway (AID 1259385; calls by dose curve; note: nearly all actives have a fitted effect of over 20% in size; for activity change, negative = inhibition: % is set by controls: 0 for no effect and ±100 for the full control effect); conditions: TSHR-HEK293 cAMP HTRF, TSH-stimulated antagonist mode; activity change, negative = inhibition: at 92.4 µM (top of the series) unless noted
UniProt P16473, sequence (P16473 whole entry, looked up): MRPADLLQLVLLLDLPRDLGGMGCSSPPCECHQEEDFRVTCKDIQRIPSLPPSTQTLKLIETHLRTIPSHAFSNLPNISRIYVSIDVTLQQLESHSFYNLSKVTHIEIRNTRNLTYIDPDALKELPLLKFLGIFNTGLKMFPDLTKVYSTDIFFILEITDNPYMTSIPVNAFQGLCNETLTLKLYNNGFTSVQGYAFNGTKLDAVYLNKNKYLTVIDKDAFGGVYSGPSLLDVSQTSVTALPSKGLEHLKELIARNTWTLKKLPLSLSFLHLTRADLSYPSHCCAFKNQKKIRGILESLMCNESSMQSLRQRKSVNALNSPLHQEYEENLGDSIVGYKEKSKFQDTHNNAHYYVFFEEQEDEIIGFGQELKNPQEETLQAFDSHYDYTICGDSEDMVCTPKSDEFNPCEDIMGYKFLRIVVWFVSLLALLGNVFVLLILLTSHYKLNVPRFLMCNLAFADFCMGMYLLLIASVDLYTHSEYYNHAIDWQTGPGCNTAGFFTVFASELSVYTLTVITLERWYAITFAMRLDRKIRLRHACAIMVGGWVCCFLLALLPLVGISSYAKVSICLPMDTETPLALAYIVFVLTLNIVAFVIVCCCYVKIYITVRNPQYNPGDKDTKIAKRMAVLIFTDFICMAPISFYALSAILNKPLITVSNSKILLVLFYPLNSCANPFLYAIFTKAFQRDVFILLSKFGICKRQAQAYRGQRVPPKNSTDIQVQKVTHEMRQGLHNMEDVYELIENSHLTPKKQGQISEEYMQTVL
Outline: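 TSHR-HEK293 cells (800/well) plated 18 h, then compounds with Ro20-1724 and TSH at 1.5 ng/mL final, 30 min at room temperature. cAMP quantified by HTRF (cAMP-d2/anti-cAMP-cryptate, 1 h); 15 concentrations in triplicate.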

[9] = qHTS assay to identify small molecule agonists of the estrogen receptor alpha (ER-alpha) signaling pathway in the presence of an antagonist - cell viability counter screen (AID 1259386);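 note: cells exposed to compounds for 22 h at 37 °C before the viability read; nearly all actives have a fitted effect of over 30% in size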
Outline: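 VM7Luc4E2, stripped-serum pre-culture 5 d; 24hr plating; +ICI-182,780 10.0nM final; cpds 15 conc, 22hr, 37C/5% CO2; CellTiter-Fluor added at 21hr, fluorescence 1hr later.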

[10] = biological target: Estrogen receptor (Homo sapiens) (UniProt P03372); experiment: qHTS assay to identify small molecule agonists of the estrogen receptor alpha (ER-alpha) signaling pathway in the presence of an antagonist (AID 1259383; calls by dose curve; note: nearly all actives have a fitted effect of over 15% in size; for activation: top concentration of the series differs between compounds; % is set by controls: 0 for no effect and ±100 for the full control effect)
UniProt P03372, sequence (P03372 whole entry, looked up): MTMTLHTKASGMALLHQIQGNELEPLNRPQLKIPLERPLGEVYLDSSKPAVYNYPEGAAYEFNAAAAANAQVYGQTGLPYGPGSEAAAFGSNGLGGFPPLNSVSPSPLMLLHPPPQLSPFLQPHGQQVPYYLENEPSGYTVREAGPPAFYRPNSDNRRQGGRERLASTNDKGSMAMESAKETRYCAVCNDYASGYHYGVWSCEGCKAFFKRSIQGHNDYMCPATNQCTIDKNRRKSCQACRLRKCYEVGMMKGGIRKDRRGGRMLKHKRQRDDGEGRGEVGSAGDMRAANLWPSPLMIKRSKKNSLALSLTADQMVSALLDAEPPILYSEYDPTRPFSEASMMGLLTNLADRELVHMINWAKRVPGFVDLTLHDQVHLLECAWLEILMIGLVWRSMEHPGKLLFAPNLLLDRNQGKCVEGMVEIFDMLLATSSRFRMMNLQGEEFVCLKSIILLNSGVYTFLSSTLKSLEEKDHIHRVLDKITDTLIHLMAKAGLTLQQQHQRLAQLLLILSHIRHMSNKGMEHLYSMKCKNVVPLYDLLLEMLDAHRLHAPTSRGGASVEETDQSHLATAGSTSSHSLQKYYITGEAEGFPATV
Outline: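 VM7Luc4E2, endog. ER-alpha + 4×ERE-luc; charcoal-stripped FBS, phenol red-free, 5 d; 24hr plating; +10.0nM ICI-182,780 (final); cpds 15 conc, 22hr, 37C/5% CO2; ONE-Glo luminescence.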

[11] = qHTS assay to identify small molecule antagonists of the estrogen receptor beta (ER-beta) signaling pathway - cell viability counter screen (AID 1259382); note: nearly all actives have a fitted effect of over 55% in size
Outline: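 Cells: ER-beta-UAS-bla HEK293T, 2,000/well, 2% CS-FBS, 6 hr settle. Cpd + E2 (1nM final), 16 hr, 37C/5% CO2. Bla FRET substrate 2 hr RT, then CellTiter-Glo 30 min RT, luminescence.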
Potency is the fitted concentration of half-maximal effect; tags give direction and shape of the fitted curve or compound fluorescence and quenching.

SMILES: Oc1c(Br)c(Br)c(Br)c(Br)c1Br
- Potency [1]: inconclusive: 69 µM [cytotoxic, single point]
- Potency [2]: inconclusive: 0.308 µM [cytotoxic, full curve, poor fit]
- Potency [3]: inconclusive: 69 µM [inhibitor]
- Potency [4]: active: 27.5 µM
- Potency [5]: inconclusive: 77.4 µM [cytotoxic, partial curve, poor fit]
- Potency [6]: inconclusive: 0.774 µM [cytotoxic, full curve, poor fit]

SMILES: Clc1ccccc1N1CCNCC1
- Potency [2]: inconclusive: 33.5 µM [cytotoxic, single point]
- Potency [3]: inactive
- Potency [6]: inconclusive: 7.5 µM [cytotoxic, single point]
- Potency [7]: inactive

SMILES: C=CCOC(Cn1ccnc1)c1ccc(Cl)cc1Cl (stereo not given)
- Potency [2]: inconclusive: 10.6 µM [cytotoxic, partial curve]
- Potency [8]: inconclusive: 77 µM
- activity change, negative = inhibition [8]: inconclusive: -12.6%
- Potency [9]: inconclusive: 77.2 µM [cytotoxic, single point] and inconclusive: 54.5 µM [cytotoxic, partial curve]
- Potency [3]: inconclusive: 27.3 µM [cytotoxic, partial curve]
- Potency [6]: active: 27.4 µM and active: 21.7 µM and active: 18.8 µM

SMILES: CC(C(O)c1ccccc1)N(C)C/C=C/c1ccccc1 (stereo not given)
- Potency [2]: inconclusive: 7.5 µM [cytotoxic, partial curve]
- Potency [10]: inactive
- activity change, negative = inhibition [8]: inconclusive: -9.5% [at 42.5 µM]
- Potency [4]: inactive

SMILES: O=C(O)c1nn(Cc2ccc(Cl)cc2Cl)c2ccccc12
- Potency [2]: active: 27.1 µM and active: 26.6 µM
- Potency [11]: inconclusive: 30.4 µM [cytotoxic, partial curve] and inconclusive: 29.8 µM [cytotoxic, partial curve]
- Potency [4]: inconclusive: 13.3 µM [rising, partial curve]
- Potency [6]: inactive
- Potency [7]: inactive

SMILES: CCOP(=S)(OCC)Oc1ncn(-c2ccccc2)n1
- Potency [1]: inactive
- Potency [2]: inconclusive: 8.63 µM [cytotoxic, full curve]
- Potency [4]: inconclusive: 68.6 µM [rising, single point]

SMILES: CCCCC(CC)COC(=O)c1ccc(C(=O)OCC(CC)CCCC)c(C(=O)OCC(CC)CCCC)c1 (stereo not given)
- Potency [2]: inactive
- Potency [4]: inactive

SMILES: CN(C)N=O
- Potency [2]: inconclusive: 76.6 µM [rising, single point]
- Potency [4]: inactive

SMILES: CO[C@@H]1[C@H](OC(=O)NC(=O)CCl)CC[C@]2(CO2)[C@H]1[C@@]1(C)O[C@@H]1CC=C(C)C
- Potency [2]: inconclusive: 13.3 µM [cytotoxic, partial curve]
- Potency [3]: inconclusive: 0.149 µM [rising, partial curve, poor fit]

SMILES: O=C(O)C(F)(F)C(F)(F)C(F)(F)C(F)(F)C(F)(F)C(F)(F)C(F)(F)C(F)(F)C(F)(F)C(F)(F)F
- Potency [2]: inconclusive: 13 µM [cytotoxic, single point]
- Potency [3]: inconclusive: 0.0046 µM [falling, full curve, poor fit]
- Potency [6]: inconclusive: 51.6 µM [rising, single point]

SMILES: CCOc1nc(C(Cl)(Cl)Cl)ns1
- Potency [2]: inconclusive: 68.6 µM [rising, single point]
- Potency [9]: inactive

SMILES: CNC(=O)O/N=C(\SC)C(=O)N(C)C
- Potency [1]: inconclusive: 74.8 µM [cytotoxic, partial curve, poor fit] and inconclusive: 54.4 µM [cytotoxic, partial curve]
- Potency [7]: inconclusive: 3.09 µM [cytotoxic, partial curve, poor fit]

SMILES: O=C(O)c1ccccc1C(=O)Nc1cccc2ccccc12
- Potency [2]: inconclusive: 27.3 µM [cytotoxic]
- Potency [11]: inconclusive: 61.1 µM [cytotoxic, partial curve, poor fit]

SMILES: O=C(O)C(Cl)Br (stereo not given)
- Potency [2]: inconclusive: 4.91 µM [rising, partial curve, poor fit]

SMILES: CCc1cnc(C2=NC(C)(C(C)C)C(=O)N2)c(C(=O)O)c1 (stereo not given)
- Potency [2]: inconclusive: 34.3 µM [rising, single point]

SMILES: [N-]=[N+]=[N-]
- Potency [2]: inconclusive: 59.1 µM [rising, single point]
- Potency [10]: inconclusive: 47 µM [activator, partial curve]
- Potency [5]: inconclusive: 0.264 µM [cytotoxic, single point]
- Potency [6]: inconclusive: 61.1 µM [rising, partial curve, poor fit]

SMILES: CC1=C2C[C@H]3[C@@H](CC=C4C[C@@H](O)CC[C@@]43C)[C@@H]2CC[C@]12O[C@@H]1C[C@H](C)CN[C@H]1[C@H]2C
- Potency [2]: inconclusive: 8.41 µM [cytotoxic, full curve]
- Potency [9]: inconclusive: 5.96 µM [cytotoxic, full curve]
- Potency [5]: inconclusive: 13.3 µM [cytotoxic, full curve]
- Potency [6]: inconclusive: 13.3 µM [cytotoxic, full curve]

SMILES: O=C(OC1CCCCC1)c1ccccc1C(=O)OC1CCCCC1
- Potency [2]: inconclusive: 45.6 µM [cytotoxic]
- Potency [11]: inconclusive: 72.3 µM [cytotoxic, partial curve, poor fit]
- Potency [9]: inconclusive: 64.4 µM [cytotoxic, partial curve, poor fit]
- Potency [3]: inconclusive: 72.3 µM [falling, partial curve, poor fit]
- Potency [4]: active: 16.2 µM
- Potency [6]: inconclusive: 28.8 µM [rising, single point]
- Potency [7]: inconclusive: 20.6 µM [cytotoxic, partial curve, poor fit]
